# In PubChem BioAssay AID1347417 (National Center for Advancing Translational Sciences (NCATS), 2020):
# The whole screen tested about 120,000 compounds, of which about 5,300 (4.4%) were called active. This list was built around the results that the source calls inconclusive (neither active nor inactive); the mix of calls is not that of the screen. The call rests on the fitted dose curve; in most records, active means well fitted inhibition curve with a large enough effect; inconclusive means small, poorly fitted or top-dose-only effect; inactive means no such curve, though single readings can be large or run the other way. A potency beside an inconclusive call is a rough fit, not a confirmed value.
# Assay: qHTS Primary assay for Inhibitors of Plasmodium falciparum Dd2 growth in vitro; further: nearly all actives have a fitted effect of over 65% in size
# Conditions: P. falciparum Dd2 growth, SYBR Green, 72 h; series mostly up to 28.9 µM
# Method in brief: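 Readout: SYBR Green fluorescence, 485 nm excitation, 535 nm emission, after ~16 h lysis at 37C. Before that, Dd2-infected red cells (2.5% hematocrit) grew 72 h with compound, 29 uM top final concentration.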
# Potency means the concentration at half of the fitted maximal effect; tags describe the fitted curve by direction and shape.
row,Compound,Potency
1,O=C(NC1CC1)[C@@H]1C[C@H](Oc2ccccc2)CN1C(=O)c1cc2ccccc2[nH]1,"inconclusive: 8.91 µM [inhibitor, partial curve, poor fit]"
2,COCCNC(=O)[C@@H]1Cc2cn(Cc3ccccn3)c3cccc(c23)[C@H](CC(C)C)N1,inactive
3,O=C1[C@@H]2C[C@@H](O)CN2C2(CN(Cc3cccc(F)c3)C2)C(=O)N1Cc1ccccc1F,"inconclusive: 14.1 µM [inhibitor, single point]"
4,COC(=O)CCN(c1ccccc1)C(CNS(=O)(=O)c1ccccc1)c1ccccc1 (stereo not drawn),"inconclusive: 12.6 µM [inhibitor, single point]"
5,CCOc1ccc(CCNC(=O)Cn2c(-c3cccs3)cc3ccccc32)cc1OCC,"inconclusive: 10 µM [inhibitor, single point]"
6,COc1ccc(Nc2oc(/C=C/c3ccccc3OC)nc2C#N)cc1,"inconclusive: 8.91 µM [inhibitor, partial curve, poor fit]"
7,O=C(Nc1cccc(C(=O)OCc2cc(=O)n3nc(C4CC4)sc3n2)c1)c1cccc(Cl)c1,"inconclusive: 5.01 µM [inhibitor, partial curve, poor fit]"
8,CC(C)(C)c1ccc(-c2cc(C[C@H]3CNCC[C@H]3CC(=O)NCCN3CCOCC3)no2)cc1,active: 10 µM
9,O=C(CSc1nc2c([nH]c3ccccc32)c(=O)n1-c1ccccc1F)Nc1cccc(C(F)(F)F)c1,"inconclusive: 12.6 µM [inhibitor, single point]"
10,Cc1cc2oc(C(=O)N(Cc3ccc(N(C)C)cc3)Cc3ccco3)c(C)c2cc1Cl,"inconclusive: 20 µM [inhibitor, single point]"
11,Cc1ccccc1Nc1nc(N)c(C(=O)c2ccccc2Cl)s1,"inconclusive: 11.2 µM [inhibitor, single point]"
12,CCCCOc1ccccc1C1CC(=O)Nc2cc(C)c(C)cc21 (stereo not drawn),"inconclusive: 17.8 µM [inhibitor, single point]"
13,O=C(c1cccc(-n2cnnc2)c1)N1CCOC(c2ccc(F)cc2)C1 (stereo not drawn),inactive
14,CC(C)CNc1ncnc2onc(-c3ccc(Cl)cc3)c12,"inconclusive: 6.31 µM [inhibitor, partial curve, poor fit]"
15,Cc1ncc(C(=O)NCc2cc3n(n2)CCCN(C2CCCCC2)C3)s1,inactive
16,CC(C)Oc1ccc(CNC(=O)CCC2CCN(S(=O)(=O)c3ccccc3)CC2)cc1,"inconclusive: 20 µM [inhibitor, single point]"
17,COc1cc(F)ccc1-c1cc(-c2c(C)noc2C)c2cncn2c1,active: 3.55 µM
18,CCc1ccc(CNC(=O)c2ccc(-c3nc(CSc4ccc(C)cc4)c(C)o3)cc2)cc1,"inconclusive: 0.0089 µM [inhibitor, full curve, poor fit]"
19,O=C(CSc1oc(-c2ccc(F)cc2)nc1S(=O)(=O)c1ccccc1)NC1CCCCC1,inactive
20,O=C(Nc1ccccc1Br)c1cc(CN2CCCC2)on1,"inconclusive: 11.2 µM [inhibitor, single point]"
21,Cc1nc(C)c(C(=O)N2CCC(Cc3nc(-c4ccccc4)n[nH]3)CC2)s1,"inconclusive: 5.62 µM [inhibitor, partial curve, poor fit]"

row,Compound,Potency
1,COc1cccc(CN2CCC([C@H]3[C@@H](OC)C(=O)N3C(C)C)CC2)n1,inactive
2,COc1cccc(-c2ccc3c(n2)CN(Cc2ccc(F)cc2)C(=O)CO3)c1,"inconclusive: 12.6 µM [inhibitor, partial curve, poor fit]"
3,Cc1ccccc1CN1C(=O)c2ccccc2Sc2ccc(C(=O)NCCc3ccccc3)cc21,"inconclusive: 17.8 µM [inhibitor, single point]"
4,C=Cc1ccc(Cn2c(C)c(CNCCc3ccc(OCC)cc3)c(C(=O)O)c2C)cc1,"inconclusive: 20 µM [inhibitor, partial curve, poor fit]"
5,CCn1cc(C(=O)N2CCN(c3cccc(Cl)c3)CC2)c(=O)c2cc(S(=O)(=O)N3CCC(C)CC3)ccc21,"inconclusive: 4.47 µM [inhibitor, partial curve]"
6,COc1ccccc1OCCNC(=O)CC1=C2CCCCC2NC1=O (stereo not drawn),inactive
7,Cc1cn2nc(C(=O)N3CCC(NC(=O)COc4ccc(F)cc4)CC3)cc2c(=O)[nH]1,"inconclusive: 1 µM [inhibitor, partial curve, poor fit]"
8,O=C(NCCCN1CCN(c2cccc(Cl)c2)CC1)c1ccc2nc(Cc3ccccc3)oc2c1,"inconclusive: 17.8 µM [inhibitor, single point]"
9,COc1ccc(-c2cnc(Nc3ccccc3)c3c2CCO3)cn1,"inconclusive: 31.6 µM [inhibitor, single point]"
10,COc1ccccc1C(=O)N1CCCN(c2cc(-c3ccc(F)cc3)[nH]n2)CC1,"inconclusive: 3.98 µM [inhibitor, single point]"
11,COCc1noc([C@@H]2CN(C3CCCCCC3)C[C@H]2CO)n1,"inconclusive: 10 µM [inhibitor, single point]"
12,O=C(CCCc1ccccc1)NC1CCN(c2cc(-c3ccccc3)[nH]n2)CC1,inactive
13,CC(C)CCN1CCC(N2CCN(S(=O)(=O)c3ccc4c(c3)CCCC4)CC2)C1=O (stereo not drawn),"inconclusive: 1 µM [inhibitor, partial curve]"
14,CCOc1ccc(-n2cc(-c3ccccc3)c3c(NC4CCCC4)ncnc32)cc1,"inconclusive: 17.8 µM [inhibitor, single point]"
15,O=C(CN1C(=O)C2(SCC(=O)N2c2ccc(F)cc2)c2ccccc21)NC1CCCCC1 (stereo not drawn),"inconclusive: 10 µM [inhibitor, single point]"
16,Cc1ccc(C2=NC3(CCN(C(=O)c4ccc5cc[nH]c5c4)CC3)ON2)cc1,"inconclusive: 2 µM [inhibitor, partial curve, poor fit]"
17,CCCN1C(=O)C(CC(=O)N2CCCCCC2)Sc2ncccc21 (stereo not drawn),inactive
18,Cn1cccc1CN1CCC2(CC1)CN[S+](=O)([O-])c1cccnc1O2,inactive
19,COc1cccc(N2C(=O)NC(=NC3CCCC3)C23CCN(C(=O)c2ccccc2OC)C3)c1 (stereo not drawn),inactive
20,Cc1ccc(-c2noc([C@@H]3C[C@H](NS(=O)(=O)c4ccc(Cl)cc4)CN3C)n2)cc1,"inconclusive: 11.2 µM [inhibitor, single point]"
21,COc1ccc(-c2cc(N3CCCC(NC(=O)Cc4ccsc4)C3)n[nH]2)cc1 (stereo not drawn),inactive

row,Compound,Potency
1,Cc1ccc(N2C(=O)CSC23C(=O)N(CC(=O)NCc2ccccc2)c2ccccc23)cc1 (stereo not drawn),"inconclusive: 10 µM [inhibitor, single point]"
2,CN1CCN(CCNC(=O)c2cnn(-c3ccc(F)cc3)c2C2CCN(C(=O)OC(C)(C)C)CC2)CC1,"inconclusive: 11.2 µM [inhibitor, partial curve]"
3,CCCCNC(=O)c1ccc2c(c1)N=C(CC)c1ccccc1S2,"inconclusive: 11.2 µM [inhibitor, partial curve, poor fit]"
4,Cc1ccc(N2CCN(C(=O)c3noc(-c4ccc5c(c4)OCO5)n3)CC2)c(C)c1,inactive
5,Cc1cccc(C(=O)NC2CCN(c3cc(-c4ccc(F)cc4)[nH]n3)C2)c1 (stereo not drawn),active: 10 µM
6,O=C(CC[C@H]1NC(=O)c2ccccc2NC1=O)NCCn1cnc2ccccc2c1=O,inactive
7,Cc1ccc(OCC(=O)Nc2nonc2-c2ccc(Br)cc2)cc1C,inactive
8,COC[C@H]1NC(=O)CC[C@H]1C(=O)N1CCN(c2ccccc2F)CC1,inactive
9,O=C1CC(c2noc(-c3ccc4c(c3)OCO4)n2)CN1c1ccc(F)cc1 (stereo not drawn),inactive
10,Cc1cc(C)cc(OCCSc2nc3ccc(NC(=O)COc4ccccc4)cc3s2)c1,"inconclusive: 12.6 µM [inhibitor, single point]"
11,CSCC[C@@H]1NC(=O)c2cc(NC(=O)c3n[nH]c4c3CCCC4)ccc2NC1=O,"inconclusive: 10 µM [inhibitor, single point]"
12,CCc1ccccc1OCC(=O)c1ccc2c(c1)N(CCCC(=O)NCCOC)C(=O)CO2,"inconclusive: 3.55 µM [inhibitor, single point]"
13,O=C(NCc1ccc(F)cc1)C1CN(Cc2ccccc2)C(=O)N1 (stereo not drawn),inactive
14,CCn1cnnc1-c1nn(C)c2c1CN(C(=O)CCc1ccc(OC)cc1)CC2,"inconclusive: 11.2 µM [inhibitor, partial curve, poor fit]"
15,COc1ccc(CN[C@H]2[C@H](O)[C@H](O)C[C@@H]2c2ccc(C(F)(F)F)cc2)cc1,"inconclusive: 2 µM [inhibitor, partial curve, poor fit]"
16,CCOC(=O)c1c(S(=O)(=O)N2CCCC(C(=O)N3CCN(c4cc(C)ccc4C)CC3)C2)c(C)n(C)c1C (stereo not drawn),active: 1 µM
17,COc1ccc(NC(=O)c2c(-c3cnn(C)c3NCc3ccc(C#N)cc3)noc2C)cc1,"inconclusive: 17.8 µM [inhibitor, single point]"
18,CC(=O)c1cc(C(=O)N2C[C@H]3CC[C@@H]2CN(CCCc2ccccc2)C3)cs1,"inconclusive: 11.2 µM [inhibitor, single point]"
19,CCc1cccc(-n2nnnc2N2CCN(C(=O)Nc3ccc(C)c(F)c3)C(C)C2)c1 (stereo not drawn),"inconclusive: 6.31 µM [inhibitor, partial curve, poor fit]"
20,O=C(Nc1nc2c(F)cccc2s1)c1ccc(S(=O)(=O)N2CCCc3ccccc32)cc1,"inconclusive: 0.0079 µM [inhibitor, full curve, poor fit]"
21,COc1ccc(-c2ccc(NS(=O)(=O)c3cc(C)c(C)cc3C)cc2)nn1,"inconclusive: 11.2 µM [inhibitor, single point]"
